Some of the results follow.

This experiment concerns T1, C. trachomatis L2/434/Bu expressing GFP (CTL2-GFP).
T1 construct: L2/434/Bu GFP intracellular growth in HeLa cells
Set-up: species or system HeLa; C. trachomatis total inclusion area by high-content imaging, normalised to DMSO. As to conditions: total inclusion area; 28.5 h, 10 µM; inhibitor. The method in brief:
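High-content imaging followed the bulk GFP/resorufin measurement: fixed, Hoechst-stained cells were scored for GFP inclusions and host nuclei per well. Total inclusion area and count served as growth proxies, nuclei number as the viability proxy. MIC calculation matched the bulk assay.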
For `O=C1NCCc2c1[nH]c1ccc(Cl)cc21` [CBK015755], the “% of control remaining” value was 75.4804.

As to `CS(=O)(=O)N1CCCc2cc(C(=O)O)ccc21` [CBK287072], the “% of control remaining” value turned out to be 112.72.

As for `CC(N)C(=O)NC1CCN(c2nc3c(cc2F)c(=O)c(C(=O)O)cn3C23CC(C2)C3)C1` (centres unmarked) [CBK016632], the “% of control remaining” value is 0.3463.

As for `O=C(OCCc1cccnc1)N1CCSCC1` [CBK200160], the “% of control remaining” value is on record as 112.627.

For `O=C(Nc1ccc2ccccc2c1)c1ccccc1N(Cc1ccccc1)S(=O)(=O)c1ccccc1` [CBK263751], the “% of control remaining” value came out at 94.9006.

On to `Cc1ccc(C(C)C)c(OCC(=O)n2nc(C)cc2C)c1` [CBK058196], for which the “% of control remaining” value stood at 101.62.

Turning to `Cc1cc(C)n(CC(=O)Nc2ccccc2-n2ccnc2)n1` [CBK283079], the “% of control remaining” value is listed as 74.9959.

With `COc1cccc(NC(=O)NCc2ccc(F)cc2)c1` [CBK115590], the “% of control remaining” value was determined as 98.5945.

Turning to `O=C(COc1ccc(Cl)cc1Cl)NC(Cc1ccccc1)C(=O)O` (centres unmarked) [CBK261061], the “% of control remaining” value worked out at 100.469.

For the compound `C(=C\c1ccccc1)/CNCCCN1CCOCC1` [CBK278195C], the “% of control remaining” value came out at 54.72.

For the compound `O=S(=O)(Nc1cccc(-c2cnco2)c1)c1cccc2cccnc12` [CBK067104], the “% of control remaining” value is listed as 98.6119.

For the compound `Cc1ccc(Cl)cc1NC(=O)OCCN(C)C` [CBK016906], the “% of control remaining” value came out at 111.641.

On to `CCCCNS(=O)(=O)c1ccccc1[N+](=O)[O-]` [CBK261456], for which the “% of control remaining” value is recorded as 96.265.

Turning to `COc1cncc(C(NC(=O)c2ccc3[nH]nnc3c2)[C@H]2C[C@@H](O)C2)c1` (some centres unmarked) [CBK307049], the “% of control remaining” value was found to be 80.9228.

Take `CC1(C)[N+]([O-])=CC(c2ccc(-c3ccccc3)cc2)=[N+]([O-])C1(C)C` [CBK267825]: the “% of control remaining” value amounted to 88.8196.

As to `Cc1csc2c(C3CCCN(C(=O)c4cnn(C)c4)C3)nc(C)n12` (centres unmarked) [CBK284595], the “% of control remaining” value was determined as 81.2728.

Take `O=C1N[C@]2(CCc3ccccc31)CN(Cc1ccccc1)C[C@H]2CO` [CBK284795]: the “% of control remaining” value was 77.943.

Regarding `CCc1nc(N)nc(N2CCCC3(CN(C)C(=O)O3)C2)c1C` (centres unmarked) [CBK306914], the “% of control remaining” value came out at 47.7589.

For `O=C(NCc1cccnc1)c1ccc2c(c1)C(=O)N(Cc1ccco1)C2=O` [CBK269675], the “% of control remaining” value was 53.8882.

Consider `Nc1cc(S(=O)(=O)O)c2cccnc2c1O` [CBK278176], for which the “% of control remaining” value came out at 72.4115.

Turning to `COc1cc(/C=C2/C(=O)N(c3nnn[nH]3)N=C2C)ccc1OC(=O)c1cccs1` [CBK266641], the “% of control remaining” value is on record as 89.707.

Consider `CN(C)S(=O)(=O)N1CC2(CCN(C(=O)[C@@H]3CN(C(=O)C(C)(C)NC(=O)OC(C)(C)C)C[C@H]3c3cc4ccccc4o3)CC2)c2ccccc21` [CBK014088], for which the “% of control remaining” value worked out at 82.5617.

With `CC(C)Oc1ccc(-c2cc(C(=O)NCc3ccncc3)c3ccccc3n2)cc1` [CBK293957], the “% of control remaining” value is on record as 115.916.

On to `CCOC(=O)CN1CCN(c2cc(C#N)ccn2)CC1` [CBK306006], for which the “% of control remaining” value was determined as 70.5042.

Regarding `Cc1nc(N)sc1-c1nnc(SCC(=O)Nc2ccccc2C(F)(F)F)n1C` [CBK267359], the “% of control remaining” value worked out at 105.136.

As for `COc1ccccc1N(CC(O)CN1C(=O)NC(C)(C)C1=O)S(=O)(=O)c1ccc(C)cc1` (centres unmarked) [CBK263581], the “% of control remaining” value is recorded as 102.268.

Take `CCN(Cc1ccncc1)C(=O)NCC1CCCCC1` [CBK155132]: the “% of control remaining” value amounted to 109.863.

As for `COc1ccc(OCCNC(=O)c2ccc(-c3cccc(N(C)C)c3)nc2N(C)C(C)=O)cc1` [CBK076587], the “% of control remaining” value stood at 75.3136.

As for `COc1cc(CCN2CCCCC2)c(C(C)n2cncn2)cc1OC` (centres unmarked) [CBK023837G], the “% of control remaining” value turned out to be 65.4125.

Turning to `CC(=O)Oc1cccc(CN2CCCN(S(=O)(=O)c3ccc(-c4ccccc4)cc3)CC2)c1` [CBK063113], the “% of control remaining” value is recorded as 102.021.

For `O=C(c1cscn1)N1CCC2(CCCNC2)C1` (centres unmarked) [CBK153230C], the “% of control remaining” value was 100.736.

For `CC(=O)c1c(C(=O)O)[nH]c(C(=O)O)c1C` [CBK263934], the “% of control remaining” value was found to be 96.4521.

`NCCCCCCNC(=O)c1c(O)c2ccccc2oc1=O` [CBK261071]: the “% of control remaining” value was found to be 88.9338.

`Cc1cc2c(SCc3cc(O)[nH]n3)ncnc2s1` [CBK269799]: the “% of control remaining” value turned out to be 95.2381.

As to `CCc1nnc(NS(=O)(=O)c2ccc(NC(=O)c3ccccc3[N+](=O)[O-])cc2)s1` [CBK045494], the “% of control remaining” value is given as 98.8137.

Consider `COc1ccc(OC(=O)COc2nc3c(C)cc(C)nc3[nH]2)cc1` [CBK269290], for which the “% of control remaining” value is on record as 82.8903.

Consider `COc1ncc(-c2ccc(N3CCN(c4ccncc4)CC3)nc2)c(OC)n1` [CBK036848], for which the “% of control remaining” value was found to be 80.7664.

Consider `CCNC(=O)N1CC2(CCN(C/C=C/c3ccccc3)CC2)c2ccccc21` [CBK144596T], for which the “% of control remaining” value was 91.2823.

On to `O=C1CSC2(C(=O)Nc3ccccc32)N1c1ccc2ccccc2c1` (centres unmarked) [CBK093461], for which the “% of control remaining” value amounted to 85.4809.

Turning to `CCn1cc(CN(C)C(=S)Nc2cccc(C(C)=O)c2)c(C)n1` [CBK267040], the “% of control remaining” value amounted to 121.529.

On to `COc1ccc(C2(C(=O)NCc3ccncc3)CCOCC2)cc1` [CBK287991], for which the “% of control remaining” value stood at 100.345.

Consider `O=C(C1CCCC1)N1CCC(n2c(=O)oc3ccccc32)CC1` [CBK284349], for which the “% of control remaining” value is reported as 59.0143.

Take `CCn1ccnc1CN1CCCC(CCc2ccccc2F)C1` (centres unmarked) [CBK307173]: the “% of control remaining” value worked out at 63.3017.

`CCC(C)NC(=O)C(Cc1ccc([N+](=O)[O-])cc1)N1C(=O)c2ccccc2C1=O` (centres unmarked) [CBK261278]: the “% of control remaining” value was 75.6375.

As to `CN(C)CCC(O)(c1ccccc1)c1cc2c(cc1Cl)CCC2` (centres unmarked) [CBK010000C], the “% of control remaining” value amounted to 21.5939.

Turning to `O=C(Oc1ccccc1)N1CCC(n2c(=O)[nH]c3ccccc32)CC1` [CBK149865], the “% of control remaining” value is given as 100.838.

In the case of `S=C(Nc1nc2c(s1)CCCC2)NC1CC1` [CBK288425], the “% of control remaining” value turned out to be 99.473.

As for `COc1ccc(OCCN2CCc3ccccc3C2)cc1` [CBK126403], the “% of control remaining” value stood at 91.3932.

For `CCCCC(c1ccc(Cl)cc1)N(CCN(C)C)c1ccccn1` (centres unmarked) [CBK012315F], the “% of control remaining” value amounted to 68.2276.

Consider `Cc1ccc(N(CC(=O)NCC2CCCO2)S(=O)(=O)c2ccc(Cl)cc2)cc1` (centres unmarked) [CBK269039], for which the “% of control remaining” value was determined as 96.0001.

Consider `CC(=O)NS(=O)(=O)c1ccc(-c2ccc(/C=C(/C#N)c3nc4ccc(C)cc4[nH]3)o2)cc1` [CBK264771], for which the “% of control remaining” value worked out at 91.1283.

Take `CCn1cc(C(=O)NN)c(=O)c2cc(F)c(NN)cc21` [CBK262735]: the “% of control remaining” value was 99.8302.

Consider `O=C(CCCN1C(=O)c2ccccc2C1=O)Nc1ccc(C(=O)O)cc1` [CBK287043], for which the “% of control remaining” value is 90.9383.

In the case of `COc1ccc(NC(=O)CSc2nnc(C(O)c3ccccc3)n2C)cc1` (centres unmarked) [CBK266053], the “% of control remaining” value was 109.801.

Regarding `Cc1nccn1C1CCCN(C(C)C(=O)NC2(C#N)CCCCC2)C1` (centres unmarked) [CBK304194], the “% of control remaining” value is reported as 78.5482.

As for `CC(=O)c1ccc(S(=O)(=O)NCc2ccc(C(F)(F)F)cc2)cc1` [CBK044314], the “% of control remaining” value came out at 98.3226.

In the case of `NC(=O)CCC(=O)N1CCC2(C/C=C/CCOc3ccccc3C(=O)NCCCNC2=O)CC1` [CBK292059], the “% of control remaining” value amounted to 90.1569.

For `CCNC(=S)N1CCN(C(=O)c2cccc(OC)c2)CC1` [CBK154778], the “% of control remaining” value is recorded as 116.336.

Take `CC1=NN(c2ccccc2)C(=O)/C1=C\c1cn(CCC(=O)O)nc1-c1cc2ccccc2o1` [CBK265252]: the “% of control remaining” value came out at 125.378.

As to `CCOC(=O)CNS(=O)(=O)c1cc(Cl)sc1Cl` [CBK034431], the “% of control remaining” value is recorded as 112.606.

On to `Cc1ccccc1CNC(=O)CN(c1cccc(C(F)(F)F)c1)S(=O)(=O)c1ccccc1` [CBK264047], for which the “% of control remaining” value amounted to 101.986.

In the case of `Cc1ccc2cc(CN(Cc3ccc4c(c3)OCO4)Cc3nnnn3Cc3ccco3)c(=O)[nH]c2c1` [CBK108949], the “% of control remaining” value was 111.729.

Take `O=C(Cc1cc(F)cc(F)c1F)Nc1cccc2[nH]ccc12` [CBK159650]: the “% of control remaining” value is recorded as 93.0641.

As to `Cc1nc2ccccc2c(=O)n1CCC(=O)N1CCc2sccc2C1c1ccco1` (centres unmarked) [CBK285706], the “% of control remaining” value was found to be 93.549.

Regarding `c1cncc(CCOc2nccnc2N2CCNCC2)c1` [CBK014992], the “% of control remaining” value is 66.0002.

Turning to `CCOc1ccc(-c2ncncc2-c2ccccc2)c(O)c1` [CBK288111], the “% of control remaining” value is recorded as 94.3523.

`Cc1n[nH]c(=O)c2c(C)noc12` [CBK001281]: the “% of control remaining” value stood at 87.6732.

Consider `O=C(Nc1nnc(-c2ccccc2)o1)C1COc2ccccc2O1` (centres unmarked) [CBK287596], for which the “% of control remaining” value is listed as 117.675.

For `CC(C)C(=O)Nc1ccc2ccc(-c3ccc(C(C)(C)C)cc3)nc2n1` [CBK073669], the “% of control remaining” value came to 83.8694.

As to `CNS(=O)(=O)c1ccc(C)c(NC(C)=O)c1C` [CBK034426], the “% of control remaining” value is 78.5333.

For the compound `CN1CC(C(=O)N2CCC(c3cc4ccccc4cn3)CC2)CC1=O` (centres unmarked) [CBK284870], the “% of control remaining” value is on record as 92.7115.

Consider `C=CCn1c(SCC(=O)Nc2sc3c(c2C#N)CCC3)nc2scc(-c3ccccc3)c2c1=O` [CBK264477], for which the “% of control remaining” value came to 104.831.

With `OC(COc1cccc2ccccc12)CN1CCN(C(c2ccccc2)c2ccccc2)CC1` (centres unmarked) [CBK007591], the “% of control remaining” value is given as 88.8081.

Turning to `Cc1cc(C)c(S(=O)(=O)NCCN2CCN(S(=O)(=O)c3c(C)cc(C)cc3C)CC2)c(C)c1` [CBK265842], the “% of control remaining” value worked out at 77.9157.

With `CC(C(=O)N1CCC(c2nn(C)c3ncccc23)CC1)c1ccccc1` (centres unmarked) [CBK282166], the “% of control remaining” value is 90.0248.

`COc1ccc(CN2CC[C@H]3[C@@H](C2)[C@H](c2ccsc2)CN3C(=O)c2ccccc2)cc1` [CBK285614]: the “% of control remaining” value came to 66.5223.

On to `COCCNc1nc(-c2cccs2)cn2ccnc12` [CBK066408], for which the “% of control remaining” value was 102.189.

For `Cc1cccc(C2NS(=O)(=O)NC2=N)c1` (centres unmarked) [CBK263868], the “% of control remaining” value worked out at 105.492.

Take `O=C(OCc1ccccc1)N1CCC(c2nc3ccc(Br)cc3[nH]2)CC1` [CBK153849]: the “% of control remaining” value was 109.971.

In the case of `Cc1cc2c(cc1C)NC(CC(=O)Nc1ccc(N(C)C)cc1)C(=O)N2` (centres unmarked) [CBK265595], the “% of control remaining” value was 97.2984.

These data come from paper PMC12040169 (PLOS Biology, 2025).
